Measurements as given in ChEMBL document CHEMBL5308541, “MAIP: An Open-Source Tool to Enrich High-Throughput Screening Output and Identify Novel, Druglike Molecules with Antimalarial Activity” (ACS Med Chem Lett, 2023).
The whole screen tested about 150,000 compounds, of which about 540 (0.36%) showed an effect of 50% or more. Some of the results follow.

test system: Plasmodium falciparum; experiment: Primary screen in NF54 nanoGlo assay, in single point, at 2uM, 72h; a lower Z score goes with more inhibition; format: functional, Erythrocyte; conditions: timepoint 72 hour

Row | Compound | % Inhibition [%] | Z score
1 | c1ccc(CN2CCC(Nc3nnc(-c4ccc[nH]4)o3)CC2)cc1 | 4 | -0.71
2 | COC(=O)CN1CCC(N[C@H]2CCN(c3ncccc3F)C2)CC1 | 0 | -0.1
3 | CCS(=O)(=O)c1c[nH]c(=O)c(C(=O)N2CCC[C@H](C)CC2)c1 | -6 | 1.28
4 | Cc1ccccc1[C@]1(O)CCN(C(=O)CN2CCC(c3ccccc3)CC2)C1 | -10 | 1.66
5 | c1ccc(CO[C@@H]2CCCC[C@H]2NC2CCN(c3ncccn3)CC2)cc1 | -7 | 1.19
6 | Nc1ccc(Nc2ccc(F)cc2)c2ccncc12 | 47 | -9.42
7 | Fc1ccc([C@H](CNc2nccc(-c3ccccn3)n2)N2CCCC2)cc1 | 5 | -1.03
8 | Cn1cc(CC(=O)NCc2ccc(Oc3nccs3)cc2)c2ccccc21 | -10 | 1.72
9 | CC[C@@H](Cn1ccnc1)Nc1nc(-c2cccnc2)nc2c1CCNCC2 | -8 | 1.29
10 | CC1(C)NC(=O)N(CCOC(=O)CC2CC3CCC2C3)C1=O (stereo unspecified) | -3 | 0.45
11 | Cn1cc(-c2cnn(CC3CCN(C(=O)OC(C)(C)C)CC3)c2)cn1 | 6 | -0.98
12 | O=C(N1CC=C(c2c[nH]c3ccccc23)CC1)C1(Cc2nc3ccccc3s2)CCCC1 | -1 | 0.08
13 | Cc1noc2ncnc(NCc3cccc(OCCN(C)C4CCOCC4)c3)c12 | 2 | -0.34
14 | Cc1ccncc1Cc1nc(C2(c3cccc(OC(F)(F)F)c3)CC2)no1 | -4 | 0.78
15 | Cc1nc(CN(Cc2ccccc2)[C@@H](C)C2CC2)sc1C | -6 | 1.2
16 | CCOc1ccc2ncc(C#N)c(NCc3cccc(Cl)c3)c2c1 | -9 | 1.33
17 | CN(CCc1nc2cc(Cl)ccc2[nH]1)C(=O)[C@@H]1CC2(CCNCC2)CN1 | -2 | 0.28
18 | CC[C@H](C)Oc1cc(CNc2nccc(N3CCOCC3)n2)ccn1 | -3 | 0.61
19 | CN(C)c1ccccc1-c1cccc(C(=O)NC2CCN(CCO)CC2)c1 | -11 | 1.94
20 | C[C@@H]1CN(c2ncnc3[nH]ccc23)CCN(C2CCC2)C1 | -3 | 0.54
21 | CN(C)c1ccc(-c2cncc(C(=O)N3CCN(CCN4CCCOCC4)CC3)c2)cc1 | -7 | 1.14
22 | Cc1cc(N2CCC(NCc3ccc(C(F)(F)F)cc3F)CC2)nc(N)n1 | 10 | -2.1
23 | Cc1nc2ccc(C(=O)NCc3ccc(N4CCC[C@H](C)C4)cc3)cc2o1 | -9 | 1.62
24 | CN1C2CCC1CC(N1CCN(C(=O)c3cnc4ccc(F)cc4c3)CC1)C2 (stereo unspecified) | -7 | 1.16
25 | COC1CN(c2ncnc3[nH]ccc23)CC1Cc1cc(C)no1 (stereo unspecified) | 6 | -1.14
26 | CN(CCCn1ccnc1)c1ccnc2cc(Br)ccc12 | 99 | -17.18
27 | Cc1cc(O)c2cccc(-c3cccc4c3CCNC4)c2n1 | -10 | 1.46

Row | Compound | % Inhibition [%] | Z score
28 | Nc1nc(CCCNC2CCC3(CCNCC3)CC2)cs1 | 3 | -0.45
29 | Cc1ccc(C(=O)N2CCC(Nc3nc(N)c4cnn(C)c4n3)CC2)cc1 | 13 | -2.87
30 | Cc1ccc(NCCCNCc2ccc(Cl)c(F)c2)nc1 | -1 | 0.08
31 | CC[C@H](O)CN1CCC(Nc2ncc(Cl)cn2)CC1 | -13 | 2.62
32 | CCc1cc(-c2nc([C@H](Cc3ccccc3)OC)no2)cc(=O)[nH]1 | -10 | 1.52
33 | c1cc(COC[C@H]2CCCCO2)cc(Nc2nc3ccccc3o2)c1 | -1 | 0.24
34 | CCOCCN(Cc1ccc(C(=O)O)o1)C(=O)c1cc(-c2ccc(OC)cc2)n[nH]1 | -2 | 0.41
35 | CCc1cccc2c(C3CCN(C(=O)[C@H](C)N4CCN(C)CC4)CC3)c[nH]c12 | 4 | -0.79
36 | O=C1c2n[nH]c(-c3ccccc3O)c2[C@@H](c2ccccc2F)N1Cc1ccc2c(c1)OCO2 | -10 | 1.49
37 | Fc1ccc(-n2cc(CNCCC3CCN(c4ccncc4)CC3)cn2)cc1 | 91 | -15.93
38 | CCc1cnc(N)nc1NC[C@H]1CCCCCN1 | 1 | -0.26
39 | O=C(c1c[nH]c2ccccc12)N1CCN(c2nc(-c3ccsc3)cs2)CC1 | -8 | 1.44
40 | CCn1nc(CO)c2c1CCN(Cc1cc(C(C)=O)cn1C)C2 | -7 | 1.2
41 | CC[C@]1(CO)CCCN1C(=O)CCc1cccc(OC(F)F)c1 | -6 | 0.91
42 | Cn1cc(N2CCN(CCc3cc(Cl)cc(Cl)c3)CC2=O)cn1 | -2 | 0.26
43 | c1cc(NCc2cccc3[nH]ccc23)cc(-c2nnc[nH]2)c1 | -4 | 0.68
44 | OC1(c2cccc(C(F)(F)F)c2)CCN(c2ccc3cc[nH]c3n2)CC1 | 5 | -1.08
45 | Cc1cc(C)n([C@@H](C)CC(=O)N2CCN(C(=O)c3ccc(O)cc3)CC2)n1 | 2 | -0.25
46 | Cc1cc(C(=O)NC2CCCCC2F)ccc1-n1cncn1 (stereo unspecified) | -7 | 1.54
47 | CCn1c2ccccc2c2cc([C@H]3NCCc4c3[nH]c3ccccc43)ccc21 | 4 | -0.91
48 | Nc1ccc(NC2CCCN(C(=O)CNCC3CCCO3)CC2)cn1 (stereo unspecified) | -7 | 1.18
49 | CC(C)c1cc(CN(C)C(=O)c2ccc(-c3cnccc3N)cc2)no1 | 2 | -0.27
50 | COCCN=C(NCCCc1nc2ccccc2[nH]1)N1CCCC1 | -9 | 1.87
51 | CN(C)C(=O)CN1CCC(NC(=O)c2cncc(-c3ccc(N(C)C)cc3)c2)CC1 | -12 | 2.2
52 | CCN(Cc1cccc(OC2CCCC2)c1)CC1CCN(C2CCN(C)CC2)CC1 | 20 | -3.46
53 | COc1cccc(-c2cc(C(=O)N[C@H]3CCN(c4ccc(-c5nc(C)no5)cn4)C3)[nH]n2)c1 | -4 | 0.71
